Source: publication PMC7578860
No constants are given. Whether binding was seen depends on the method and setting. In cells and extracts the contact can be indirect. Some results given as binding are weak or reduced against the parent protein; the word gives no strength. For part of these data: Sequences can lack the tags named with a protein.

How the values were obtained:
[1] = molecular target: T1, Flag‐tagged KSRP (in Raw264.7 cells) (human) (UniProt Q92945); assay: co-IP; Raw264.7 cells cotransfected with Myc-FBXW2 and Flag-KSRP; protein extracts; antibodies to Myc and Flag; western blot
T1 sequence: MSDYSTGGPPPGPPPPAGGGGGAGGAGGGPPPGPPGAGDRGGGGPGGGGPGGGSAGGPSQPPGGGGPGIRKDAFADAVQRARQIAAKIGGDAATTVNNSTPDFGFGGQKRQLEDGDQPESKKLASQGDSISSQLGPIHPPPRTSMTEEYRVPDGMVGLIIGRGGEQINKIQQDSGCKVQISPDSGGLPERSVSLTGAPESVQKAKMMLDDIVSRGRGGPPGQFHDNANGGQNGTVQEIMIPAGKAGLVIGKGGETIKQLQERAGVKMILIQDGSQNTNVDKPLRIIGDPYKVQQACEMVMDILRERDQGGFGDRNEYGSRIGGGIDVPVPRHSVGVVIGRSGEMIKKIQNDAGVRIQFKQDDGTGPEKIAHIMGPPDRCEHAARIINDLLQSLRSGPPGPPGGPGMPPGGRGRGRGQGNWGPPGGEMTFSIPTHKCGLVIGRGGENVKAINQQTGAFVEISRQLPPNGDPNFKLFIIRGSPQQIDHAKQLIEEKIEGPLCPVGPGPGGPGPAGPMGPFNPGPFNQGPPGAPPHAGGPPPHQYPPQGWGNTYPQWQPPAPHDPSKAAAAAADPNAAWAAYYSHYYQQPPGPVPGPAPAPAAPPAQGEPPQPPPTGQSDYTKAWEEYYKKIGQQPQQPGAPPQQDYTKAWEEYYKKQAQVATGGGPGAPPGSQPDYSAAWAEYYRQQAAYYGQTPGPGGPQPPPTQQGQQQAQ

[2] = molecular target: T2, Flag‐tagged full‐length KSRP (in HEK293T cells) (human) (UniProt Q92945); assay: co-IP; HEK293T cells cotransfected with a full-length partner and tagged deletion mutants or segments of the other (Figure 4E, 4F); antibodies to Myc and Flag; western blot
T2 sequence: T1 sequence

[3] = molecular target: T3, F‐box/WD Repeat‐Containing Protein 2 (FBXW2), endogenous in mouse macrophages (mouse (endogenous in peritoneal macrophages and BMDMs)) (UniProt Q60584); assay: co-IP; endogenous FBXW2 and KSRP in mouse BMDMs, with and without LPS (1 µg mL^-1) treatment
T3 sequence: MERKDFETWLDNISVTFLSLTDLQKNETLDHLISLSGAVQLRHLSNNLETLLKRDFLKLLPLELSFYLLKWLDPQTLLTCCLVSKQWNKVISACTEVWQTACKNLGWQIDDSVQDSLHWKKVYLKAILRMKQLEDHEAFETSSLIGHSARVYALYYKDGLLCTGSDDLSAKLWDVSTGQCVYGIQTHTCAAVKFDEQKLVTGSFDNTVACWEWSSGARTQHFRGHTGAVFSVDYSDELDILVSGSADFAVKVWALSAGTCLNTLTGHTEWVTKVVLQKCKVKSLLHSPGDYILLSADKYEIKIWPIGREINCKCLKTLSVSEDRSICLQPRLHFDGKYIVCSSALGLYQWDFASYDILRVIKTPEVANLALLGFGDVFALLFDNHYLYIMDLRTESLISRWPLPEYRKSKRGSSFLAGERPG

[4] = molecular target: T2, Flag‐tagged full‐length KSRP (in HEK293T cells) (human); assay: co-IP; HEK293T cells cotransfected with Flag-KSRP and V5-FBXW2 in combinations with Myc-FBXW2 constructs P1, P2, P3; KSRP precipitated with anti-Flag antibody, V5-FBXW2 detected by immunoblot

B1: Myc‐tagged FBXW2 (in Raw264.7 cells) (protein, UniProt Q9UKT8 1-454)
chain: MERKDFETWLDNISVTFLSLTDLQKNETLDHLISLSGAVQLRHLSNNLETLLKRDFLKLLPLELSFYLLKWLDPQTLLTCCLVSKQWNKVISACTEVWQTACKNLGWQIDDSVQDALHWKKVYLKAILRMKQLEDHEAFETSSLIGHSARVYALYYKDGLLCTGSDDLSAKLWDVSTGQCVYGIQTHTCAAVKFDEQKLVTGSFDNTVACWEWSSGARTQHFRGHTGAVFSVDYNDELDILVSGSADFTVKVWALSAGTCLNTLTGHTEWVTKVVLQKCKVKSLLHSPGDYILLSADKYEIKIWPIGREINCKCLKTLSVSEDRSICLQPRLHFDGKYIVCSSALGLYQWDFASYDILRVIKTPEIANLALLGFGDIFALLFDNRYLYIMDLRTESLISRWPLPEYRKSKRGSSFLAGEASWLNGLDGHNDTGLVFATSMPDHSIHLVLWKEHG
- binding [1]: binds

B2: FBXW2 (P3), C‐terminal WD40 repeat domain of FBXW2, Myc‐tagged (domain or fragment, UniProt Q9UKT8 307-454)
chain: GREINCKCLKTLSVSEDRSICLQPRLHFDGKYIVCSSALGLYQWDFASYDILRVIKTPEIANLALLGFGDIFALLFDNRYLYIMDLRTESLISRWPLPEYRKSKRGSSFLAGEASWLNGLDGHNDTGLVFATSMPDHSIHLVLWKEHG
- binding [2]: binds

B3: KH‐type splicing regulatory protein (KSRP), endogenous in mouse macrophages (protein, UniProt Q3U0V1 1-748)
chain: MSDYNTGGPPPGPPPPAGGGGGAAGAGGGPPPGPPGAGDRGGGGPGGGGPGGGGASGGPSQPPGGGGPGIRKDAFADAVQRARQIAAKIGGDAATTVNNNTPDFGFGGQKRQLEDGDQPDSKKLASQGDSIGSQLGPIHPPPRTSMTEEYRVPDGMVGLIIGRGGEQINKIQQDSGCKVQISPDSGGLPERSVSLTGAPESVQKAKMMLDDIVSRGRGGPPGQFHDNANGGQNGTVQEIMIPAGKAGLVIGKGGETIKQLQERAGVKMILIQDGSQNTNVDKPLRIIGDPYKVQQACEMVMDILRERDQGGFGDRNEYGSRVGGGIDVPVPRHSVGVVIGRSGEMIKKIQNDAGVRIQFKQDDGTGPEKIAHIMGPPDRCEHAARIINDLLQSLRSGPPGPPGAPGMPPGGRGRGRGQGNWGPPGGEMTFSIPTHKCGLVIGRGGENVKAINQQTGAFVEISRQLPPNGDPNFKLFVIRGSPQQIDHAKQLIEEKIEGPLCPVGPGPGGPGPAGPMGPFNPGPFNQGPPGAPPHAGGPPPHQYPPQGWGNTYPQWQPPAPHDPNKAAAAATDPNAAWAAYYSHYYQQPPGPVPGPAPAPAAPPAQGEPPQPPPTGQSDYTKAWEEYYKKIGQQPQQPGAPPQQDYTKAWEEYYKKQAQVATGGGPGAPPGSQPDYSAAWAEYYRQQAAYYGQTPGPGGPQPPPTQQGQQQASGNCHPPPPPFSFQPPATVHPALVGSAGNPFPCGVCP
- binding [3]: binds

B4: V5‐FBXW2 (in HEK293T cells) (protein, UniProt Q9UKT8 1-454)
chain: B1 chain
- binding [4]: binds

B5: FBXW2 (P1), F‐box of FBXW2, Myc‐tagged (domain or fragment, UniProt Q9UKT8 1-138)
chain: MERKDFETWLDNISVTFLSLTDLQKNETLDHLISLSGAVQLRHLSNNLETLLKRDFLKLLPLELSFYLLKWLDPQTLLTCCLVSKQWNKVISACTEVWQTACKNLGWQIDDSVQDALHWKKVYLKAILRMKQLEDHEA
- binding [2]: no binding

B6: FBXW2 (P2), N‐terminal WD40 repeat domain of FBXW2, Myc‐tagged (domain or fragment, UniProt Q9UKT8 139-306)
chain: FETSSLIGHSARVYALYYKDGLLCTGSDDLSAKLWDVSTGQCVYGIQTHTCAAVKFDEQKLVTGSFDNTVACWEWSSGARTQHFRGHTGAVFSVDYNDELDILVSGSADFTVKVWALSAGTCLNTLTGHTEWVTKVVLQKCKVKSLLHSPGDYILLSADKYEIKIWPI
- binding [2]: no binding
